In the supplement of paper PMC11417369:
± gives the standard deviation of the averaged measurements. The list shows a part of the results.

The sequences below were run on PfAP2-LT AP2 domain (GST-tagged) (assay: gcPBM binding intensity (ln(normalized median fluorescence intensity)); higher = stronger DNA binding).
Procedure, shortened: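 The highest Masliner-normalised natural-log median intensity across replicate spots of either probe orientation is reported as binding intensity. GST-tagged P. falciparum DNA-binding domains expressed in E. coli were applied for 1 h to an Agilent 4 × 180k array of primer-extended double-stranded 36-bp intergenic genomic probes plus negative controls, and bound protein was detected with Alexa488 anti-GST antibody and scanned at 488 nm.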

Row | Sequence | gcPBM binding intensity (ln)
1 | TTATTATTATTACTAGTGCATTAATTATATATGTAA | 8.55 ± 0.42
2 | TTTTTTTTTTCTGAAAGTACTAATTTCCTGGAGGAA [XGTACX_site759] | 8.19 ± 0.48
3 | TAAATATTTTTAGATGCATGCAATAATTACCCAAAG [TGCATGCA_site636] | 8.86 ± 0.28
4 | ATAAAATAAATATTTTGTTATTTATTTAATCTAATA [XGTACX_negctrl_site404] | 8.2 ± 0.59
5 | ACCTCATAATATTTAACACACAAAATTAAATGTATG [CACACA_site6898] | 8.96 ± 0.34
6 | TTTCAAAAAAATAATGTGCACATTAGAAAATAAATA [GTGCAC_site9416] | 8.79 ± 0.45
7 | CTTATCAAAAAAAAAGCATGCCACAGGCAAAAGGTA [TGCATGCA_site574] | 8.97 ± 0.47
8 | ACATATAAATATATTACACACACACTAAAAAAATAA [CACACA_site6209] | 9.69 ± 0.27
9 | CACCTTATAAATACTGCACACATAAAATATATATTA [CACACA_site8908] | 9.03 ± 0.39
10 | ATATATATATATATATGTACATATATACATATACAT [XGTACX_site2350] | 9.85 ± 0.38
11 | AAAATATAATATAATGCACACATAAAACAAAAAAAA [CACACA_site8989] | 9.05 ± 0.4
12 | GAATAATATATATATTGTACTTTTTATTTATATTAT [XGTACX_site3180] | 8.79 ± 0.37
13 | AAAAAAAAATTAATATATAAAAGGATATATATATAT [GTGCAC_negctrl_site449] | 8.94 ± 0.24
14 | ATATATATATTTATATGTACGAAATATAAAAAAAAA [XGTACX_site5054] | 8.69 ± 0.46
15 | CTTTTTTTTTTTTTTACACACCCAAATCACATACAT [CACACA_site4051] | 8.96 ± 0.5
16 | TGAACACACGAGCACACACACACATCTATATTTATA [CACACA_site6607] | 10 ± 0.28
17 | TGGAATAATACGCGTACACACATATATATATTAATA [CACACA_site131] | 9.19 ± 0.45
18 | AGGTATCAAAAATATGCATGCAATATTTTATGTAAT [TGCATGCA_site1055] | 9.02 ± 0.38
19 | ATATAAAAATGTGTATGTACACACTTTATTTTTAAT [XGTACX_site5272] | 9.38 ± 0.29
20 | ATCCTTTATTTTTTTTGTACATAAAAATAACTCGAG [XGTACX_site3885] | 8.95 ± 0.54
21 | TTAAAAAACCTTAGATGTACAGTTATATATAAAATA [XGTACX_site6688] | 8.54 ± 0.4
22 | AAATTACAAATACAAACACACAAATGTTTTTCATTC [CACACA_site3552] | 8.78 ± 0.42
23 | TTTTTCTATAAAAAATGTACATATTTTATGAAGGAA [XGTACX_site821] | 8.18 ± 0.31

Row | Sequence | gcPBM binding intensity (ln)
24 | AAAATAAAAATATTCACACATACAAAAATTATACAA [CACACA_site5136] | 8.79 ± 0.52
25 | CATTAATAAAAAAAAAGTACAAAAAATATATATATT [XGTACX_site2091] | 8.71 ± 0.57
26 | ATTTTTTTACTGTAACCATATTTTTCCCTTTTATTC [CACACA_negctrl_site1143] | 8.86 ± 0.63
27 | ATAATATATATATATAGTACATATATATAATATTCT [XGTACX_site2445] | 8.66 ± 0.4
28 | TTTTTTTTTTTTTTTTGTACGTATCAAAAAATTTGT [XGTACX_site1023] | 8.5 ± 0.31
29 | AAAAATAAATTTAGTTGTACTTTATTATTTTAAATA [XGTACX_site3067] | 8.28 ± 0.37
30 | AATCAATAAATAAAAACATGCATATATATATATATA [TGCATGCA_site438] | 9.9 ± 0.38
31 | AAAAAAAAAAAAATACGTACATACATACCTACATAT [XGTACX_site233] | 8.98 ± 0.41
32 | TATATATATATGTGTACACAATTTATCTGTATTTAT [CACACA_site5945] | 9.34 ± 0.32
33 | AAGAAAAACTTTACGTGTACCAAACATCCTGCCAAC [XGTACX_site598] | 9.04 ± 0.27
34 | ATAGACAGCGCACAAACACACAAACACCCACCCACA [CACACA_site8043] | 9.99 ± 0.31
35 | TATATTGATGATGATAGTACGTATGATTAGAAAAAA [XGTACX_site8989] | 8.74 ± 0.48
36 | AGTGATACTAATTTTTGTACGCATAAAAGAATATTC [XGTACX_site6055] | 8.67 ± 0.24
37 | TAGGAAAAGAAAAGCACACACATAAATAAATATATA [CACACA_site504] | 9.34 ± 0.43
38 | TAATTTATTATATTTTGTACGTAAAATTATTATTGT [XGTACX_site8155] | 8.64 ± 0.52
39 | AATATTTATTTTACATGTACTTATTTTTCTTTTAAC [XGTACX_site3631] | 9.29 ± 0.45
40 | AATATATATTTATATTGTACATATATATATATTTCT [XGTACX_site2603] | 8.76 ± 0.42
41 | ATTATATATACACGCACACACACTTATATATATATA [CACACA_site9093] | 9.81 ± 0.26
42 | CATTCATTTATTAATTGTACTTTTAAGGTTAAATAA [XGTACX_site5838] | 8.27 ± 0.4
43 | TAAAAATATATACATACATGCATACATATATATGTA [TGCATGCA_site774] | 8.65 ± 0.34
44 | CAAGCCCTTCTGCTTACACACAGTAATTATTGTGTA [CACACA_site2953] | 9.19 ± 0.35
45 | TTTTTAACATATCATACACACAACAACTTTTTATAG [CACACA_site1962] | 8.79 ± 0.36
46 | AAAAAAAAAAATATAACACACAAAAAATTGTATCGA [CACACA_site1144] | 8.73 ± 0.51

Row | Sequence | gcPBM binding intensity (ln)
47 | ATATAGTAAAATTATACACACATGAATTTTCCCATA [CACACA_site3113] | 8.96 ± 0.43
48 | ACAAAATTTACAAAATGTACATATTGTAGATATTGT [XGTACX_site7618] | 8.73 ± 0.4
49 | CCATTAAATACATACACACCCACACCCAAAAAAAAA [CACACA_site4633] | 9.85 ± 0.14
50 | TATAAATAAAGACACACACACATATAAATAAATATA [CACACA_site7155] | 9.68 ± 0.26
51 | TTTATATACTATTCAAAGTGATAAATAATATATGAA [TGCATGCA_negctrl_site352] | 8.42 ± 0.44
52 | AAAAAAAAAAAACATACACACAATAAAATAGGGGTA [CACACA_site2399] | 9.22 ± 0.4
53 | ATTTATTTATTAAGATGTACTTATTAAAAATAATAA [XGTACX_site7392] | 8.16 ± 0.42
54 | ATTTATTCATTTGGGTGTACTATTTAAAAAAAACAA [XGTACX_site498] | 8.43 ± 0.36
55 | TATTTATATTTTAACACACACATATTTATATTTATA [CACACA_site7324] | 8.99 ± 0.47
56 | TATATTTTTTAAACCACACACAATATAGAGTATAAT [CACACA_site4510] | 8.98 ± 0.4
57 | TATATATAATTTTATACATGCACATATTATATATAT [TGCATGCA_site1036] | 8.85 ± 0.42
58 | TAAACATTTTTGCACGCACACAAAAAAAAAATAAAA [CACACA_site167] | 9.12 ± 0.59
59 | ATTAAATGCAGTTCGGTGCATTAAGGTTATGATGAA [GTGCAC_site9883] | 8.67 ± 0.48
60 | CACATACAGACATACACACACATATAGATTAATATA [CACACA_site6399] | 9.57 ± 0.31
61 | AATAAGAAATGTAAATGTACATAAAAAAAAGTATAT [XGTACX_site3573] | 9.03 ± 0.49
62 | TATATATATATATTATGTACATATATATTAAATATG [XGTACX_site2494] | 8.81 ± 0.3
63 | TTAGGGTTTTATAAATGTACTTATTTATACATCCTC [XGTACX_site5769] | 8.79 ± 0.45
64 | ATAATATTTTGAAACGGTACACTTTTAAAATACACT [XGTACX_site4423] | 8.63 ± 0.41
65 | AAAATAAGGAAAAAAAAAAAAAAAAAAAAAAAAAAG [CACACA_negctrl_site1291] | 8.52 ± 0.69
66 | ACAAGATGATGGAAATGTACATAAAAAGAATCATAT [XGTACX_site8682] | 9.13 ± 0.54
67 | TTTTTTTTTATATTTAGTACATATATATTATTATAT [XGTACX_site3334] | 8.71 ± 0.49
68 | AACACTACATAAAACTGTACAATAGTATTTTATTAT [XGTACX_site996] | 8.92 ± 0.42
69 | ATTATTAAAATGATATGTACGCACATAATATACATA [XGTACX_site3236] | 8.85 ± 0.33

Row | Sequence | gcPBM binding intensity (ln)
70 | CTTAGTGTATTTGAATGTACGCATAAATATAATTAT [XGTACX_site2830] | 8.68 ± 0.35
71 | TATATATTAATATATGCATGTACGATTATTATAATA [TGCATGCA_site446] | 8.73 ± 0.37
72 | AAAAAAAAAAAACATACACACAAATATGTACATACA [CACACA_site7807] | 9.14 ± 0.47
73 | AATAAAAATCCACAAGCACACAAATGTACTTATATA [CACACA_site8783] | 8.83 ± 0.42
74 | TAAATACAAAAATGTACACACATATAAATATTTTTA [CACACA_site7612] | 8.83 ± 0.41
75 | TTAATTAAATATTATACACACAAAAAAATAACTTTA [CACACA_site6197] | 8.62 ± 0.38
76 | AAAGTGTTAACCTAATCTTTAGTTTTTAAACAATAT [CACACA_negctrl_site841] | 8.49 ± 0.41
77 | TGTATTTAAAATGGTTGTACATAAATAAAAATAAAA [XGTACX_site7771] | 8.54 ± 0.49
78 | ATTTATTTATTTATATGTACTTATATATGTATTTTC [XGTACX_site6269] | 9.14 ± 0.52
79 | TATTGAAACGTATAGACACACATATGATATATATAT [CACACA_site3226] | 9.01 ± 0.38
80 | TGTTTTGTTTTTTGGGGTACATGTTTTGTATTATAT [XGTACX_site7997] | 9.32 ± 0.3
81 | TATCCCTTAGAATACACACCCATATGAGTGTGAACT [CACACA_site7398] | 8.92 ± 0.31
82 | ATATCTTATGTTATCACACACACACGCACAAAACAG [CACACA_site6800] | 9.69 ± 0.26
83 | TGTATTTATAAACATGCACACGTGGTTGTATTTATA [CACACA_site5762] | 9.09 ± 0.37
84 | ATTTTTTTTATTTTTTATATAATTTTTTTATATTAT [CACACA_negctrl_site1521] | 8.69 ± 0.5
85 | ATTTGTTTACCTAAAAGTACAAATTTTTTATGTATA [XGTACX_site7689] | 8.48 ± 0.36
86 | ATATATATATATATATGTACATATATATATGTATAT [XGTACX_site3959] | 9.37 ± 0.36
87 | TATACATACAGACCCACACACAAAAAAAAAAAAAAA [CACACA_site6536] | 9.35 ± 0.5
88 | ATATTATTTTAAAGTACACACATATATTAATATATA [CACACA_site2315] | 8.76 ± 0.38
89 | ATGTATTAAAAAAATTGTACTATAAAATGTAACCGC [XGTACX_site8083] | 8.84 ± 0.37
